According to PubChem BioAssay AID588591 (National Center for Advancing Translational Sciences (NCATS), 2011):
About 4,700 (1.2%) of roughly 390,000 compounds were called active. The inconclusive results got no clear call from the source; some entries with a clear call stand among them for comparison. Calls come from the whole dose curve; as a rule, active = well fitted inhibition curve with a large enough effect; inconclusive = small, poorly fitted or top-dose-only effect, or another doubt; inactive = no such curve, though single readings can be large or run the other way. Potencies of inconclusive entries are doubtful fits and often do not repeat.
Potency is the fitted concentration of half-maximal effect; tags give direction and shape of the fitted curve.

The compounds below were run against DNA polymerase eta (Homo sapiens) (UniProt Q9Y253) (assay: qHTS for Inhibitors of Polymerase Eta). Conditions: recombinant Pol eta, fluorescent DNA replication assay; series mostly up to 114 µM.
UniProt Q9Y253, sequence (Q9Y253 whole entry, looked up): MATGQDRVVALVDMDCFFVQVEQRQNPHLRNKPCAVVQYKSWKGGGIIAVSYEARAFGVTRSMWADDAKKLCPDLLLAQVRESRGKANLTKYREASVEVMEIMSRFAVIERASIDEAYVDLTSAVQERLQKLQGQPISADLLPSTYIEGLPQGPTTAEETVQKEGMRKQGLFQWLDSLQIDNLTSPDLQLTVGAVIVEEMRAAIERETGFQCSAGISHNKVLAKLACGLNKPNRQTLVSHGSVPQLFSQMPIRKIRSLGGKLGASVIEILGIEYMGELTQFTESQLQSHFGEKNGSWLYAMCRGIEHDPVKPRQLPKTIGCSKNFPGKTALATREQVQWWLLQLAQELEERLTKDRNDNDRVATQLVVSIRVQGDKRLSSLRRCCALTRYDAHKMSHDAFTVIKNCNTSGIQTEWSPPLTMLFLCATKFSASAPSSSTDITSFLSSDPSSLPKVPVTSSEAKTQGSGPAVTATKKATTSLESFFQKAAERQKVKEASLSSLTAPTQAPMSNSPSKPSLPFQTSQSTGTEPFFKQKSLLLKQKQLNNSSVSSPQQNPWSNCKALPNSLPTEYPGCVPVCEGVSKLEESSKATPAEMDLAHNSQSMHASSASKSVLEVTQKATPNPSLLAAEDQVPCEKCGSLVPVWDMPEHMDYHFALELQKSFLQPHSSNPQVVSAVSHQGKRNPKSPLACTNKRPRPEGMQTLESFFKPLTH
Procedure, shortened: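 Fluorescent replication assay: 50 nM final substrate added after a 15 min room-temperature compound preincubation with 10 nM enzyme. Signal taken at 0 min and again at 10 min.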
With `Cc1ccc(S(=O)(=O)N(CCCO)CC(O)CON=C2c3ccccc3-c3ccccc32)cc1` (stereo unspecified) the Potency was inconclusive: 28.2 µM [inhibitor, partial curve, poor fit]. `COc1cc(/C=N/NC(=O)c2cccnc2)ccc1OC(=O)c1ccc([N+](=O)[O-])cc1` was tested, and the Potency was inconclusive: 50.1 µM [inhibitor, partial curve]. In the case of `O=C1/C(=C/c2ccccc2)CCc2ccc(Cl)nc21`, the Potency is reported as inconclusive: 35.5 µM [inhibitor, partial curve, poor fit]. `COc1cc(NC(=O)CSCc2cnn(-c3ccccc3)c2-n2cccc2)cc(OC)c1` was tested, and the Potency was inconclusive: 35.5 µM [inhibitor, partial curve, poor fit]. In the case of `CC(NC(=O)COc1ccc(/C=N/NC(=O)C(=O)Nc2ccccc2Br)cc1)c1ccccc1` (stereo unspecified), the Potency is reported as inconclusive: 14.1 µM [inhibitor, partial curve, poor fit]. `O=C1CCCC(O)=C1N=Nc1ccc2c(c1)OCO2` was tested, and the Potency was “inactive”. In the case of `Cc1ccc2cc3cc(C(=O)N4CCN(C(=O)c5ccco5)CC4)sc3nc2c1`, the Potency is reported as inconclusive: 22.4 µM [inhibitor, partial curve]. With `Cc1ccc2nc(Cl)c(/C=C/C(=O)c3ccco3)cc2c1` the Potency was inconclusive: 39.8 µM [inhibitor, partial curve]. `Cc1cccc(OCc2cc(=O)n3c(-c4ccccc4)csc3n2)c1C` was tested, and the Potency was inconclusive: 100 µM [inhibitor, single point]. For `CC(=O)Nc1ccc(C(=O)COC(=O)c2nc3nc(C)cc(C)n3n2)cc1`, the Potency was inconclusive: 35.5 µM [inhibitor, full curve]. With `CCCn1c(SCc2nc(-c3ccccc3C)no2)nnc1-c1ccc(Cl)cc1` the Potency was inconclusive: 0.251 µM [inhibitor, partial curve, poor fit]. `O=C(Nc1cc(Sc2ccccn2)cc([N+](=O)[O-])c1)c1ccc([N+](=O)[O-])cc1` was tested, and the Potency was inconclusive: 25.1 µM [inhibitor, partial curve, poor fit]. `CC(=O)c1c[nH]c(C(=O)NCc2ccccc2Cl)c1` was tested, and the Potency was “inactive”. For `COc1c2c(c(CCC(=O)O)c3c1C=CC(C)(C)O3)OC(C)(C)C=C2`, the Potency was active: 17.8 µM. For `CC1(C)C=C2C(=NN(c3ccccc3)C(N)=C2C#N)CO1`, the Potency was active: 17.8 µM. With `Cc1ccsc1CN(C)C(=O)CN1C(=O)NC(c2ccccc2)(c2ccccc2)C1=O` the Potency was inconclusive: 100 µM [inhibitor, partial curve, poor fit]. With `Cc1ccc(C)c(OCC(=O)Nc2c[nH]c(=O)[nH]c2=O)c1` the Potency was inconclusive: 35.5 µM [inhibitor, partial curve, poor fit]. For `CCOc1ccc(NC(=O)CC2C(=O)N(c3ccccc3)C(=O)N2CCc2ccc(OC)cc2)cc1` (stereo unspecified), the Potency was “inactive”. With `CCOc1cc(/C=C(\C#N)c2[nH]nc(N)c2C#N)ccc1O` the Potency was inconclusive: 31.6 µM [inhibitor, partial curve, poor fit]. With `O=C1O/C(=C/Br)CCC1c1cccc2ccccc12` (stereo unspecified) the Potency was inconclusive: 28.2 µM [inhibitor, partial curve]. `O=C(CCOc1ccccc1)Nc1ccnn1C1CCN(C(=O)CCC(F)(F)F)CC1` was tested, and the Potency was “inactive”. For `Cc1ccc(C(=O)CSc2nc(C)cc(=O)[nH]2)cc1`, the Potency was “inactive”. In the case of `Cc1ccccc1Oc1ccc2c(c1)[C@@H]1C[C@H](N(C)C(=O)c3ccc(C#N)cc3)[C@H]([C@H](C)O)C(=O)N1CC2`, the Potency is reported as “inactive”. For `CC(C)(C)c1csc(NC(=O)c2cccs2)n1`, the Potency was inconclusive: 89.1 µM [inhibitor, partial curve, poor fit]. In the case of `O=C1C(=Cc2cccn2-c2ccccc2)C(=O)c2ccccc21`, the Potency is reported as inconclusive: 17.8 µM [inhibitor, partial curve, poor fit]. `O=C(COC(=O)/C=C/c1ccc(Br)o1)Nc1cccc(S(=O)(=O)N2CCOCC2)c1` was tested, and the Potency was inconclusive: 3.98 µM [inhibitor, partial curve]. With `O=C(COC(=O)CCc1nc2ccccc2c(=O)[nH]1)Nc1ccccc1Cl` the Potency was inconclusive: 89.1 µM [inhibitor, single point]. In the case of `O=C(O)c1cccc(-c2ccc3c(c2)OCO3)c1`, the Potency is reported as “inactive”. For `COc1ccc(-n2c(C)cc(C(=O)CSc3ccc(NC(C)=O)cc3)c2C)cc1`, the Potency was inconclusive: 70.8 µM [inhibitor, partial curve, poor fit]. `Cn1cccc1C(=O)OCc1nc2ccccc2c(=O)[nH]1` was tested, and the Potency was active: 20 µM. In the case of `O=C(O)c1cc2nc3c(c(C(F)(F)F)n2n1)CCc1ccccc1-3`, the Potency is reported as inconclusive: 25.1 µM [inhibitor, single point]. In the case of `O=C(Nc1cccc(S(=O)(=O)N2CCOCC2)c1)C1COc2ccccc2O1` (stereo unspecified), the Potency is reported as inconclusive: 25.1 µM [inhibitor, partial curve, poor fit]. With `Cc1ccc2c(=O)c(C(=O)c3ccccc3)cn(CC(=O)Nc3ccc4c(c3)OCCO4)c2n1` the Potency was inconclusive: 100 µM [inhibitor, partial curve, poor fit]. With `CC1CCCC(NC(=O)NC(=O)COC(=O)c2ccc(O)cc2O)C1C` (stereo unspecified) the Potency was inconclusive: 35.5 µM [inhibitor, partial curve, poor fit]. In the case of `COc1cc(/C=N/NC(=O)c2ccccn2)ccc1OC(=O)c1ccccc1Br`, the Potency is reported as inconclusive: 44.7 µM [inhibitor, partial curve, poor fit]. `CCOC(=O)c1sc(N=NC2=C(O)CCCC2=O)c(C(=O)OCC)c1C` was tested, and the Potency was active: 79.4 µM. For `COc1ccccc1CNC(=O)C(=O)NCC1CCCN1S(=O)(=O)c1cc(C)ccc1C` (stereo unspecified), the Potency was “inactive”. `C=C(C)CSc1cc(C)c(C#N)c2nc3ccccc3n12` was tested, and the Potency was inconclusive: 79.4 µM [inhibitor, partial curve, poor fit]. In the case of `Cc1cc(SCC(=O)NN)c2cc(Br)ccc2n1`, the Potency is reported as inconclusive: 79.4 µM [inhibitor, single point]. In the case of `CCN1C(=O)/C(=C/c2ccc(OCc3ccc(C(=O)O)cc3)c(Cl)c2)NC1=S`, the Potency is reported as inconclusive: 22.4 µM [inhibitor, full curve]. With `O=C1CSC(=S)N1/N=C/c1ccc(O)c([N+](=O)[O-])c1` the Potency was active: 6.31 µM.
